# Data published in the supplement of paper PMC10126150.
# Values marked as one replicate rest on one cluster of the flow cell; about a third of the high ones do not repeat.
# System: ATP
# Experiment: switch fluorescence ratio, 500 uM ATP over buffer (Cy3 cluster intensity, sum of 5 cycles each) (fold (ratio)); higher = stronger signal-on switching upon ATP binding; sequences stand for … in TCGTCGGCAGCGTCAGATGTGTATAAGAGACAGTTTTTTTTTTTTTTTTTTTTTTTTT…TC
# Conditions: aptamer strand: ATP DNA aptamer (quencher-CACCTGGGGGAGTATTGCGGAGGAAGG + anchor), 100 nM annealed; ATP concentration: 500 uM; one replicate
# In short: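 After annealing to 100 nM quencher-labelled ATP aptamer, Cy3-labelled switching-strand clusters on a modified Illumina MiSeq flow-cell were imaged in selection buffer. A second image followed after 15 min with 500 uM ATP at 22 °C, and five such buffer/ATP cycles were done, each separated by NaOH stripping and re-annealing. The fluorescence ratio, averaged per switch-domain sequence, is summed target-cycle over summed buffer-cycle Cy3 intensity per cluster, with clusters outside 100-1000 RFU excluded.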
# 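Also: ATP exposure 15 min at 22 °C before imaging.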
row,Sequence,switch fluorescence ratio
1,GAACTGGTCA,1
2,CTCATGGCGG,0.997
3,CACATTCGCG,1.02
4,TGGGTAGATG,1.01
5,ATCTGGTTTC,1.01
6,GAACTTCTTA,0.999
7,CAAAGTTATG,0.988
8,GCTGTCGTGC,0.935
9,CCTTGAATGT,1.03
10,TCATAAAATA,0.943
11,ACCGTCCCCT,1.09
12,GCTGTGCACC,0.992
13,TTGTCTACCT,1.05
14,GGTTTATGCG,1.01
15,TGAGAAATGA,0.996
16,ATGTCTCAGA,1.01
17,TCTGGAAGA,0.936
18,GCCTCAGAAA,1
19,CCAAAATGAA,0.992
20,GCGTATTCTG,1.09
21,CGGGAATCCG,0.965
22,ATTTTCGATT,1.02
23,ACGGGTTTCT,0.995
24,GTTCTATAG,1.06
25,AAGATTAGGC,0.976

row,Sequence,switch fluorescence ratio
1,CCCGTAGGCA,1.03
2,AAGTGACGAC,1.1
3,TCCAAATAAC,1.22
4,ACTGTCGCCG,0.971
5,CCGATCGGGT,1.67
6,GCTTATGATC,0.995
7,GTTGGGAAGC,0.955
8,CCAACAGTGG,1.16
9,GATTGTTGTT,1.02
10,CTATGGTACC,0.992
11,AGGAGCGGGT,1.06
12,CACGTACTC,1.52
13,TGGCCGAGGT,0.978
14,ATTATCAATT,0.996
15,TTACAGACTA,1.15
16,GAATTCCCAG,1.01
17,CAATACTCGT,2.17
18,CACAGGGCAC,1.03
19,TTCGGAACGT,1
20,TCTCAGTGCG,0.999
21,CCGTGCTCGT,1.03
22,GGAATATGTT,1
23,AAAGGAGACG,1.03
24,GAGTGCCATT,1
25,GCGATATCC,1.42

row,Sequence,switch fluorescence ratio
1,GCTCAACGAG,1.01
2,GGTGTATAC,1.04
3,CATCCGGATG,1.01
4,GATCCGGTGC,1.09
5,ATCTGAGATA,0.971
6,GGTGCAAAAT,0.949
7,TTTATTGGGG,0.951
8,ACTCGTGATG,0.989
9,TAGGATTGAG,0.987
10,CCGGGAAACC,1.05
11,GTGACTACTT,0.99
12,GTGTTGATGG,0.996
13,CGGTTGGTTC,0.991
14,ACCTCTTTTG,1.03
15,AAGAATCAGG,1
16,TTCGGATTTG,0.999
17,GGAATTTACT,1.03
18,ACGGTAGCAT,1.06
19,GGCTTCTGTG,0.99
20,AGTCCTTAAA,0.992
21,AGCAGCAGTC,1.45
22,GATTGCTTAG,1.02
23,CGCGGCACTA,1.55
24,GTTTTCAAGG,0.993
25,TTGATCTATT,1.02

row,Sequence,switch fluorescence ratio
1,ACAAAGTAGC,0.989
2,AACTGCGTCC,1.1
3,AAGGTACCGC,1.15
4,GTTACATACG,1.51
5,TCACATATAG,1.06
6,TGGCGGATCG,1.03
7,ATAAAGTCCG,0.993
8,GTTCTTTAG,1.01
9,GTTACGACTT,0.967
10,GCAGTTTCTA,0.979
11,ATATGATTGC,1.04
12,CAAAACTTTA,0.975
13,CGGGTACGGC,0.997
14,CATAACTGGT,0.98
15,CTTGCTCCAC,3.56
16,AGGGGTGCGT,0.995
17,TTGACGGGTT,1.05
18,AAGACGATCT,0.99
19,GTTGCGCACG,1
20,ATTTAACATC,1.05
21,GACAGGGGGT,1
22,AAGCTACTGT,1.09
23,ATCGGGTTCG,1
24,ATGAAGGTAG,0.993
25,TTTCTTGAGG,0.941

row,Sequence,switch fluorescence ratio
1,CATGCAAGAG,2.28
2,TATCCGATGG,1.02
3,AGGATAATAT,1.03
4,TCCTCTTGAC,1.55
5,TAATGTCTAA,0.99
6,TTGCGCAGGT,1.05
7,AACTGATTTA,0.993
8,GGGTTTGACA,0.972
9,TAAGCCAGTG,1.07
10,CCGTTCACTC,1.77
11,TGAGCTTGGA,0.981
12,CACGAAGGCT,1.06
13,TTATCTGTGG,0.995
14,CCCTTGGTTG,1.09
15,CTGGATGGAC,1.05
16,TATGAATACA,0.991
17,AAGAGCCTG,1
18,TTGATTAACG,1.02
19,ATCTAAGTGC,1.12
20,TGAAGATAAT,0.968
21,CGTTACAAGA,1.02
22,CCATTAAGGC,1.08
23,AAGTGATGTA,0.979
24,ATGGGCTAAC,1.03
25,CTAAGAAAGA,1.04

row,Sequence,switch fluorescence ratio
1,AGTTTTTTCA,0.972
2,TCGGGCTCAT,0.965
3,TAACTGGTGT,1.02
4,AGGACGGTGG,1
5,ATTAAGCA,1.01
6,GAAATAACTA,1
7,TTGGAGCAAT,3.89
8,TGGGGCTATC,0.985
9,AACAGCAC,1.32
10,GCAAAGTGAG,1.01
11,GAGGTACGGC,1.07
12,CGATGACCGG,1.12
13,GACAATATAC,1.39
14,TCCTTACAAT,1.62
15,CAGATAGAGG,0.961
16,TTAGCACGAG,1
17,TGGAGCCCGC,1.01
18,CCTTTTAAC,0.996
19,TTGCGTCCTG,0.988
20,GTGGCAGTAC,4.13
21,AGCGGATGGC,0.995
22,CGCTCTGGT,0.982
23,TCGGGTGTGC,0.956
24,GTTCGTTTCT,0.961
25,CTTAAGGCTT,0.972

row,Sequence,switch fluorescence ratio
1,GCTAGTTATT,1.01
2,TTGAGACGTG,0.971
3,AACCGGTGTT,1.03
4,CTAAAGGCAT,1.02
5,GCTATTGGG,1.03
6,GATATCTTA,1.01
7,TGAGGATGG,0.995
8,ATAGCCCTGC,1.04
9,CGTAAAGCAC,1.29
10,GACGAATGGC,1.1
11,CCAGAAGGAA,1.05
12,GATATCGAAT,1.02
13,GCGGGTTTAA,1.02
14,GTCTTTAAGT,0.958
15,TGGGTCAAGA,0.957
16,GTTTAGTTTC,0.982
17,AAGAGGACAG,1.06
18,TACCGTGGCG,0.97
19,CAGTTGAGAC,1.01
20,ACAACATGCG,0.992
21,GTATGACGTG,0.99
22,TATCTTTTGG,1.02
23,CGGTATTTCT,0.986
24,GTTGCTGCAG,0.991
25,CGATTTACCC,1.04

row,Sequence,switch fluorescence ratio
1,CTAATCCCTC,1.04
2,CCATTGTTAG,1.01
3,AACGATCACC,1.25
4,TACTACACGG,1.43
5,GTGTAATGGG,1.02
6,TAATGCCGTT,0.992
7,TAAGGTTTC,0.975
8,CACCTGTTAG,1.01
9,ACTGTCCTCT,1.01
10,TACCATATGT,1.08
11,TGGAGTGTGA,1.02
12,ATAGCCGATA,1.08
13,CGTTAAGTGC,1.08
14,GTATTTTGAC,0.986
15,CAGTTAAAGT,0.968
16,AGTCACAAGC,1.05
17,AAAGGTCACG,1.08
18,AGGAGTAAGA,0.98
19,ACGCGTGGAG,1.07
20,TTGGAGACTC,0.995
21,CGCTTATGAA,1.02
22,TAGTATGATC,1.04
23,CATAGCCACG,1.03
24,AAATATGGA,0.994
25,TCATCACGTT,1.01
